For nine molecules, binding results are on record in paper PMC4440769.

Chains of the proteins cited; added tags and fusions are not shown.
UniProt Q9Y6K9: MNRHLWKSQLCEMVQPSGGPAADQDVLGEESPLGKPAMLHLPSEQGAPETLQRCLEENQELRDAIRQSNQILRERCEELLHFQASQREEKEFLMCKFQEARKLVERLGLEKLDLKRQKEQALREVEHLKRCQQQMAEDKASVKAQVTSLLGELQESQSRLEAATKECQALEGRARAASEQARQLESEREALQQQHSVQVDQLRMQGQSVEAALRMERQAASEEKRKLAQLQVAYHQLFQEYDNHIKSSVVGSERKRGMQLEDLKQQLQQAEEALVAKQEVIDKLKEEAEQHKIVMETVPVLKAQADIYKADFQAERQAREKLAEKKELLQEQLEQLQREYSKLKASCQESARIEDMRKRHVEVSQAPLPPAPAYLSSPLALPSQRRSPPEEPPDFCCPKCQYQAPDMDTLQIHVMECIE
UniProt Q15025: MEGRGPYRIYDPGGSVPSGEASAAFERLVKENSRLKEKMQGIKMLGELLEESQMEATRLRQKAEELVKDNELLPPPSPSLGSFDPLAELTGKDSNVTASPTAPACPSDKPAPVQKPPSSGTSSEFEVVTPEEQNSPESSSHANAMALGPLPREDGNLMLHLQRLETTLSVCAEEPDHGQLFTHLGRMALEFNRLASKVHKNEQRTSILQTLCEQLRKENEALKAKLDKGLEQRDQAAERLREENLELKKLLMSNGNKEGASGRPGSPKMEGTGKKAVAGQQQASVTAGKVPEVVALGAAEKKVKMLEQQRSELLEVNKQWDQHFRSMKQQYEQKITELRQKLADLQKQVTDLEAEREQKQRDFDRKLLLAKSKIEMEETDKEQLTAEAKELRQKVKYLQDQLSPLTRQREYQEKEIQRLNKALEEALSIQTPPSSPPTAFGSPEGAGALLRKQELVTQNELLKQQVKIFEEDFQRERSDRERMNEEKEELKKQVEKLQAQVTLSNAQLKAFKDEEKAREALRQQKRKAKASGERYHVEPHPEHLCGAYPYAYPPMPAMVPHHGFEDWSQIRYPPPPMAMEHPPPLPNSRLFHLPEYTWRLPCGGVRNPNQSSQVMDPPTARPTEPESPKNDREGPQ
UniProt Q96EP0: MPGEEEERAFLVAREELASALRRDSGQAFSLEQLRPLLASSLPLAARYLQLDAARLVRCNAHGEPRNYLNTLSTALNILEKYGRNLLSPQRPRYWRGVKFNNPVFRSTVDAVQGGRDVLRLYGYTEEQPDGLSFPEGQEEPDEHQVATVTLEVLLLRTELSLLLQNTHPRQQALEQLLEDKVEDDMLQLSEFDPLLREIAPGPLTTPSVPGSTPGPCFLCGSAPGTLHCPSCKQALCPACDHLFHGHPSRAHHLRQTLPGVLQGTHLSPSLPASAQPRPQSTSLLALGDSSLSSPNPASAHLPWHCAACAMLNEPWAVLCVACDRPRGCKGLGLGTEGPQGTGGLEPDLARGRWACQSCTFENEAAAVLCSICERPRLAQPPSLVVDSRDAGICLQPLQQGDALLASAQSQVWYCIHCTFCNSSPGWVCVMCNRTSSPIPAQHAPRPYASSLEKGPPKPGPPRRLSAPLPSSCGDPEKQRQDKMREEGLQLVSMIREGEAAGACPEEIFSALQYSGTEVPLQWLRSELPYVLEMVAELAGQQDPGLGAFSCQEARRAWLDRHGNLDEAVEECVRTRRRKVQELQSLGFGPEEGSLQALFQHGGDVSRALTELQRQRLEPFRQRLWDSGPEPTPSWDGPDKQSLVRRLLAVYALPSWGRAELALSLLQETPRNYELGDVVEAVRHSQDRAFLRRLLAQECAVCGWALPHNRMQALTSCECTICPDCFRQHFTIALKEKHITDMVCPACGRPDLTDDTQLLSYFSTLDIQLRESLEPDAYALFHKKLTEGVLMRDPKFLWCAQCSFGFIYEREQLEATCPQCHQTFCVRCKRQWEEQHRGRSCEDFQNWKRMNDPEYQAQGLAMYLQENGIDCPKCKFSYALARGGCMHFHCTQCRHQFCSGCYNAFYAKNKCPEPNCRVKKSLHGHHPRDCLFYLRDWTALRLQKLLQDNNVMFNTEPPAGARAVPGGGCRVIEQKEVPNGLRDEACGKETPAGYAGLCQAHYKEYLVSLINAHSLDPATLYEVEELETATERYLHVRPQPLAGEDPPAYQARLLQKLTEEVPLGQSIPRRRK
UniProt P03230: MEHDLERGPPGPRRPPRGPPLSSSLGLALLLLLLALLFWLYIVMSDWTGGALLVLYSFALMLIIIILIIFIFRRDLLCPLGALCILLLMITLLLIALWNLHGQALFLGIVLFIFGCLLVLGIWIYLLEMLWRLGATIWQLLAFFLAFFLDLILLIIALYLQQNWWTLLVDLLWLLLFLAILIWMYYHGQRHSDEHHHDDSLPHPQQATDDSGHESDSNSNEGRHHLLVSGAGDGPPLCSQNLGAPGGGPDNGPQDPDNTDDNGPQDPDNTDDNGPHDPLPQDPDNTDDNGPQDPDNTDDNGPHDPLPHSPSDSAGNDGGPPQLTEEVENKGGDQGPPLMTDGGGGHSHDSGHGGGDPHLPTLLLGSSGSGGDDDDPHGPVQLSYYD

The target in assay [1] is T1, FLAG-TRAF1 (UniProt Q13077).
T1 sequence: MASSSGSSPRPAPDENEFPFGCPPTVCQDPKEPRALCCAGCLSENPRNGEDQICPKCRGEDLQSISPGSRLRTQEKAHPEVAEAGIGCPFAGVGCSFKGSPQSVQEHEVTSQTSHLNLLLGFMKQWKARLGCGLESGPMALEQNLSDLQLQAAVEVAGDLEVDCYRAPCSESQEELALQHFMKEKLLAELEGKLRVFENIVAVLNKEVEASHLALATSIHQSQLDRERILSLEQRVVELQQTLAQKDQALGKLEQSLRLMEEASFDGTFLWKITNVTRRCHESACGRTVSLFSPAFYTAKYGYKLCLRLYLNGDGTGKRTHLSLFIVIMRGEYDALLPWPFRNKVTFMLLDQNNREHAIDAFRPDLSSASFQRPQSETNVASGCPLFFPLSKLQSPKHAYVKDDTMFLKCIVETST
Briefly: co-IP.

Assay [2] has as its target T2, FLAG-TRAF1 (GM12878) (UniProt Q13077).
T2 sequence: T1 sequence
Briefly: co-IP; anti-FLAG immuno-purification from GM12878 LCLs with stable FLAG-TRAF1 or FLAG-GFP expression, western blot. For orientation: Immunoblotting shows a protein as a band on a membrane.

Assay [3] concerns the target T3, HA-SHARPIN (UniProt Q9H0F6).
T3 sequence: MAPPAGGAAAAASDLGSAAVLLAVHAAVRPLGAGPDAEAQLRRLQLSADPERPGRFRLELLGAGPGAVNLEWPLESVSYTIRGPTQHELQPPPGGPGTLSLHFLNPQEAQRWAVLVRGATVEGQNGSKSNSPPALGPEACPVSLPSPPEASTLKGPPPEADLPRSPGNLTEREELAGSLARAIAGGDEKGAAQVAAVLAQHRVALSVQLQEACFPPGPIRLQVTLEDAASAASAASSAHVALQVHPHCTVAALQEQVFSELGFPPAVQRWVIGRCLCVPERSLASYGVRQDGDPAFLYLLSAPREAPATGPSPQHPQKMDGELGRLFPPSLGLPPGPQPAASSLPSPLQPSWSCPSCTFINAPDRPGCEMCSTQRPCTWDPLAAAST
Briefly: co-IP; HA immuno-purification from GM12878 stable cell lines (HA-SHARPIN, HA-IKK-gamma, HA-GFP), western blot.

The target of assay [4] is FLAG-TRAF1 264–416 (UniProt Q13077). Briefly: co-IP.
For assay [5], the target named is HA-tagged IKK-gamma (UniProt Q9Y6K9). Briefly: co-IP; HA immuno-purification from GM12878 stable cell lines (HA-SHARPIN, HA-IKK-gamma, HA-GFP), western blot.

Results are given in words; binding and its absence hold for the method and conditions named. In cells and extracts the contact can be indirect. Some binding calls cover weakened binding; strength is not graded here. For some of these results: Sequences can lack the tags named with a protein.

“ABIN1 (endogenous, 293) (from UniProt Q15025 1-636)”: the binding entry in assay [1] is reported as “binds”.
The same measure, in the same setting: as for “HOIP (endogenous, 293) (from UniProt Q96EP0 1-1072)”, the entry is “binds”.
With “HOIP (endogenous, GM12878) (from UniProt Q96EP0 1-1072)”, the binding result in assay [2] is on record as “binds”.
The same measure, in the same setting: under “IKK-gamma (endogenous, GM12878) (from UniProt Q9Y6K9 1-419)” stands “binds”.
With “Latent Membrane Protein 1 (LMP1), untagged, in GM12878 (from UniProt P03230 1-386)”, the binding result in assay [3] is “binds”.
With “untagged wildtype LMP1 (transfected) (from UniProt P03230)”, in assay [4], the binding entry was “no binding”.

B1: TRAF1 (endogenous, GM12878) (protein, UniProt Q13077 1-416)
chain: T1 sequence
For the molecule B1, the binding result in assay [5] and in assay [3] was “binds” each time.

B2: SHARPIN (endogenous, 293) (protein, UniProt Q9H0F6 1-387)
chain: T3 sequence
Regarding B2, the binding result in assay [1] is “binds”.

B3: SHARPIN (endogenous, GM12878) (protein, UniProt Q9H0F6 1-387)
chain: T3 sequence
Regarding B3, in assay [2], the binding result was “binds”.
